Here are results for 68 variants from the RNAGym collection of RNA variant scans (doi:10.1093/nar/gkz1192).

The chains are these.
B1: CPEB3 Ribozyme (parent)
chain: UAACAGGGGGCCACAGCAGAAGCGUUCACGUCGCAGCCCCUGUCAGAUUCUGGUGAAUCUGCGAAUUCUGCUGUAUAUCUC

The source gives no read counts; variants with many changes may rest on few reads.

Variants of B1 are the subject of the series. The series can be described thus: self-cleavage, relative activity (ratio to wild type); higher = more cleavage; in vitro, sequencing. The essentials: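 Relative activity was defined as the cleaved/total read fraction for a variant divided by the same fraction for the unmutated ribozyme. CPEB3 self-cleaving ribozyme libraries were made by rounds of error-prone PCR, barcoded, and transcribed in vitro with T7 RNA polymerase for 5 hours at 37°C, and cleavage ran through transcription plus a 15 min DNase I step before EDTA. Illumina sequencing of template-switched reverse transcripts gave the reads, and DNA sequencing mapped the barcodes. Averages come from three batches, using variants with at least 5 reads.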
UAACAGGGGGGCACAGCAGAAGCGUUCACGCCGCACCCCCUGACAGAUUCUGGUGAAUCUGCGAAUUCUGCUGCAUAUCUC: the self-cleavage stood at 0.86.
With UAACAGGGGGGCACAGCAGAAGCGUUCACGUCGCAGCCCCAGUCAGAUUCUGGUGAAUCUGCGUAUUCUGCUGUAUAUCUC, the self-cleavage turned out to be 0.07.
UAACAGGGGGGCACAGCAGAAGCGAUCACGUCGCAGCCCCUGCCAGAUUCUGGUGAAUCUGCGAGUUCUGCUGUAUAUCUC: the self-cleavage came to 0.18.
Take UAACAGGGGGGCACAGCAGAAGCGUUCACGCCGCAGCCCCUGCCAGAUUCUGGUGAACCUGCAUAUUCUGCUGUAUAUCUC: the self-cleavage was found to be 0.06.
With UAACAGGGGGGCACAGCAGAAACGCUCACGUCGCAGCCCCCGUCAGAUUCUGGUGAAUCUGCGAAUUCUGCUGUAUAUCUC, the self-cleavage was determined as 0.1.
As to UAACAGGGGGGCACAGCAGAAGCGCUCACGUCACAGCCCCUGUCGGAUUCUGGUGAGUCAGCGAAUUUUGCUGUAUAUCUC, the self-cleavage is 0.02.
Turning to UAACAGGGGGGCACAGCAGAAGCGUUCACGCCGCAGCCCCUGUCAGAUUCUGGUGAAUCCGCGAACUCUGCUGUAUAUCUC, the self-cleavage is 0.06.
On to UAACAGGGGGGCACAGCAGAAGCCUUCACGUCGCGGCCCCUGUCAGAUUCUGGUGAAUCUGCAAAUUCUGCUGUAUAUCUC, for which the self-cleavage came to 0.07.
UAACAGGGGGGCACAGCAGAAGCGUUCACGUCGCAGCCCCUGUCAGAUUCUGGUGAAUCUGCUUAUCCUGCUGUAUAACUC: the self-cleavage was found to be 0.08.
For UAACAGGGGGGCACAGCAGAAGCGUGCACGUCGCAGCCCCUGUCAGAUUCUGGUGAAUCUGCGGGUUCUGCUGUACAUCUC, the self-cleavage was 0.04.
Take UAACAGGGGGGCACAGCAGAAGCGAUCACGUCGCAGCCCCUGUCAGAUUCAGGUGAAUCUGCGGGUUCUGCCGUAUAUCUC: the self-cleavage worked out at 0.04.
For UAACAGGGGGGCACAGCAGAAGCGUUCACGUCGCAGCCCCCGUCAGAUUCUGGUGAGUCUGCGAAUUCUGCUGUAUAUCUC, the self-cleavage amounted to 0.85.
On to UAACAGGGGGGCACAGCAGAAGCGUUCACGUCGCAGCCCCUGUCAGAUCCUGGUGAUUCUGCGAAUUCUGCUGUACACCUC, for which the self-cleavage was 0.13.
As for UAACAGGGGGGCACAGCAGAAGCGUCCACGCCGCAGCCCCCGUCAGAUUCUGGUGAAUCUGCGAAUUCUGCUGUAUAUCUC, the self-cleavage worked out at 0.08.
As for UAACAGGGGGGCACAGCAGAAGCGUUCACGUCGCAGCCCCUGUCAGAUUCUGGCGAAUCUGCGAAUUCUGCUGUAAAUCUC, the figure is 0.24; as for UAACAGGGGGGCACAGCAGAAGCGUUCACGUCGCAGCCCCUGUCAGAUUCUGGCGAAUCUGCGAUAUCUGCUGUAUAUCUC, 0.07.
As for UAACAGGGGGGCACAGCAGAAGCGAUCACGUCGCAGCACCCGUCAGAUUCUGGUGAAUCUGCGAAUUCUGCUGUAUAUCUC, the figure is 0.3.
As to UAACAGGGGGGCACAGCAGAAGCUUCCACGUCUCAGCCCCUGUCAGAUUCUGGUGAAUCUGCGAAUUCUGCUGUAUAUCUC, the self-cleavage was 0.06.
Take UAACAGGGGGGCACAGCAGAAGCGUACACGUCGCAGCCCCUGACAGAUUCUGGUGAAUAUGCGAAUUCUGCUGUAUACCUC: the self-cleavage was 0.03.
With UAACAGGGGGGCACAGCAGAAGCGUACACGUCGCGGCCCCUGUCAGAUUCUGGUGAAUCUGCGAACUCUGCUGUAUAUCUC, the self-cleavage came to 0.44.
UAACAGGGGGGCACAGCAGAAGCGUCCACGUCGCAGCCCCUGUCAGAUUCUGGUGAAUCUGCGAAUUCUGCUGUAUAUCUA: the self-cleavage came to 0.14.
In the case of UAACAGGGGGGCACAGCAGAAGCGUUCACGUCGCAGCCCCUGCCAGAUUCUGGUGAAUCUGCGAAUUCUGCCGUAUAUCUC, the self-cleavage was found to be 0.3.
As for UAACAGGGGGGCACAGCAGAAGCGUUCACGACGCAGCUCCUGUCAGAUUCUGGUGAAUCUGCGAAUUCUGCUGUAUAUCUC, the figure is 0.09; as for UAACAGGGGGGCACAGCAGAAGCGUUCACGCCGCUGCCCCUGUCAGAUUCUGGUGAAUCUGCGAAUUCUGCUGUAUAUCCC, 0.33; as for UAACAGGGGGGCACAGCAGAAGCGUUCACGUCGCAGCCCCCGUCAGAUUCUGGUGAAUCUGCGAAUCCUGCUGUAUAUCUC, 0.23.
As for UAACAGGGGGGCACAGCAGAAGCGUCCACGUCGCAGCCCCUGUCAGAUUCUGGUGAAUCUGCGGAUUCUGCAGUAUAUCUC, the figure is 0.08.
As for UAACAGGGGGGCACAGCAGAAGCGUUCACGUCGCAGCCCCUGUCAGACUCUGGUGAUUCUGCGAAUUCAGCUGUGUAUCUC, the self-cleavage came to 0.07.
With UAACAGGGGGGCACAGCAGAAGCGUUCACGUCGCAGCCCCUGUCAGAUUCUGGUGAAACUGCGAAUUCUGCUGUAUAUCAC, the self-cleavage was 0.3.
Regarding UAACAGGGGGGCACAGCAGAAGCGACCACGUCGCAGCCCCUGUCAGAUUCUGGUGAAUCUACGAAUUCUGCCGUAUAUCUC, the self-cleavage worked out at 0.06.
For the variant UAACAGGGGGGCACAGCAGAAGCGCUCACGUCGCAGCCCCUGUCUGAUUCUGGCGAAUCUGCGAAUUCUGCUGUAUAUCUC, the self-cleavage was 0.39.
As for UAACAGGGGGGCACAGCAGAAGCGUACGCGUCGCAGCCCCUGUUAGAUUCUGGUGGAUCUGCGACUCCUGCUGUAUAUCUC, the self-cleavage was 0.04.
On to UAACAGGGGGGCACAGCAGAAGCGUUCACGUCGCAGCCCCUGUCAGAUUCUGGUGAAUCUGCUAAUUCUGCAGUAUAUCUC, for which the self-cleavage came out at 0.22.
As for UAACAGGGGGGCACAGCAGAAGCGUUCACGUCGCAGCCCCUGUCAGAUUCUGGCGAAUCUGCGGAUUCUGCUGUAUAUCUC, the figure is 0.18; as for UAACAGGGGGGCACAGCAGAAGCGUUCACGACGCCGCCCCUGUCAGAUUCUGGUGAAUCAGCGAAAUCUGCUGUAUAUCUC, 0.05.
As to UAACAGGGGGGCACAGCAGAAGCGUUCACGUCGCAGCCCCUGGCAGAUUCUGGUGAAUCUGCGAAUUCUGCUCUAUAUCUC, the self-cleavage was determined as 0.11.
As for UAACAGGGGGGCACAGCAUAAGCGUUCACGACGCAGCCCCUGUCAGAUUCUGGUGAAUCUGCGAAUUCUGCUGUAUAUCUC, the figure is 0.09; as for UAACAGGGGGGCACAGCAGAAGCGCUCACGUCGCAGCCCCUGUCAGAUUCUGGUGAAUCUGCGAAUUCUGCUGUAUGUCUC, 0.09; as for UAACAGGGGGGCACAGCAGAAGCGUUCACGUCGCAGCCCCUGUCAGAUUCAGGUGAAUCUGCGAAUUCUGCUGUAUAUCAC, 0.29.
As for UAACAGGGGGGCACAGCAGAAGCGCUCACGUUGCAGCCCCUGUCAGAUCCUGGUGAAUCUGCGAAUUCUGCUGUACAUCUC, the self-cleavage amounted to 0.06.
For UAACAGGGGGGCACAGCAGAAGCGUUCACGUCGCAGCCCCUGUCAGAUUCCGGUGAAUCUGCGGGUUCUGCCGUAUAUCUC, the self-cleavage worked out at 0.07.
On to UAACAGGGGGGCACAGCAGAAGCGUUCACGUCGCAGCCCCUGGCAGAUUCUGGUGAGCCUGCGAGUUCUGCUGUGUUUCUC, for which the self-cleavage came to 0.04.
Take UAACAGGGGGGCACAGCAGAAGCGUUCACGUCGCAGCCCCUGUCAGAUCCUGGUGAAUCUGCGAAUCCUGCUGUAUGUCUC: the self-cleavage came to 0.05.
For UAACAGGGGGGCACAGCAGAAGCGCUCACGUCGCAGCCCCAGCCAGGUUCUGGUGAAUCUGCGAACCCUGCUGUAUAUCUC the value was 0.11; for UAACAGGGGGGCACAGCAGAAGCGUCCACGUUGCAGCCCCCGUCAGAUUCUGGUGAAUCUGCGAAUUCUGCUGUAUAUCUC, 0.41.
On to UAACAGGGGGGCACAGCAGAAGCGUUCACGUCGCAGCCCCUGCCAGAUUCCGGUGAAUCUGCGAAUCCCGCUGUAUAUCUC, for which the self-cleavage stood at 0.03.
With UAACAGGGGGGCACAGCAGAAGCGUUCACGUCGCAGCCCCCGUCAGAUCCAGGUGAAUCUGCGAAUUCUGCUGUAUAUCUC, the self-cleavage amounted to 0.17.
As for UAACAGGGGGGCACAGCAGAAGCGUUCACGUCGCAGCCCCUGUCAGACUCUGGUGAGUCUGCGAAUUCUGCUGUAUAUCUC, the figure is 0.49; as for UAACAGGGGGGCACAGCAGAAGCGUUCACGCCGCAGCCCCUGUCUGAUUCUGGUGAAUCUGCGAAUUCUGCUGUAUAUCUC, 0.31; as for UAACAGGGGGGCACAGCAGAAGCGUUCACAUCGCUGCCCCUGUCAGAUUCUGGUGAAUCUGCGGAUUCUGCUGUAUAUCUC, 0.18.
On to UAACAGGGGGGCACAGCAGAAGCGUUCACGUCGCAGCCCCUGUCAUAUUCUGGUGAAUCUGCGAGUUCUGCUGUCUAUCUC, for which the self-cleavage is 0.04.
For UAACAGGGGGGCACAGCAGAAGCGUCCACGUCGCAGCCCCUGUCAGGUCCCGGUGAAGCUGCGAAUUCUGCUGUAUAUCUC the value was 0.31; for UAACAGGGGGGCACAGCAGAAGCGUUCACGUCGCAGCCCCUGUCAGAUCCUGGUGAAUCUGCGAAUUCUGCUGUAUAUCAC, 0.14.
Consider UAACAGGGGGGCACAGCAGAAGCGUUCACGCCACAGCCCCUGUCAGAUUCUGGUGAAUCUGCGAAUUCUGCUGUAUAUCUC, for which the self-cleavage stood at 0.05.
As for UAACAGGGGGGCACAGCAGAAGCGUUCACGCCGCAGCCCCUGUCAGAUUCUGGUGAAUCUGCGAAUUCUGCUGUAUAUCCC, the self-cleavage is 0.58.
Regarding UAACAGGGGGGCACAGCAGAAGCGAUCACGUCGCAGCCCCUGUCAGACUCUGGUGAAUCUGCGGAUACUGCUGUAUAUCUC, the self-cleavage was 0.06.
As to UAACAGGGGGGCACAGCAGAAGCGUUCACGUCGCAGCCCCUGUCAGAUUCUGGUGAAUCAGCGAAUUCUGCCGUAUAUCUC, the self-cleavage came out at 0.32.
As for UAACAGGGGGGCACAGCAGAAGCGUUCACGUCGCAACCCCUGGCAGAUUCUGGUGAAUCUGCGAAUUCUGCUGUAUAUCUC, the figure is 0.08; as for UAACAGGGGGGCACAGCAGAAGCGUUCACGUCGCAGCCCCUGUCAGAUUCUGGUAAAUCUGCGAAUUCUGCUGUACAUCUC, 0.15.
Take UAACAGGGGGGCACAGCAGAAGCGCUCACAUCGCAGCCCCUGUCAGAUUCUGGUGAAUCUGCGGAUUCUGCUGUAUAUCCC: the self-cleavage was 0.06.
As for UAACAGGGGGGCACAGCAGAAGCGCUCACGUCGCAGCCCCUGUCAGAUUCUGGUGUAUCUGCGAAUUCUGCUGUAUAUCUC, the figure is 0.05; as for UAACAGGGGGGCACAGCAGAAGCGCUCACGACGCAGCCCCUGUCAGAUUCUGGUGAAUCUGCGAAUUCUGCUGUAUAUCUC, 0.34; as for UAACAGGGGGGCACAGCAGAAGCGUUCACGUCGCAGCCCCUGACAGAUUCUGGUGAACCUGCGAAUUCUGCUGUAUAUCUC, 0.12.
As to UAACAGGGGGGCACAGCAGAAGCGUACACGUCGCAGCUCCUGUCAGGUUCUGGUGAAUCUGCGAAUUCUGCUGUAAAUCUC, the self-cleavage was 0.06.
For UAACAGGGGGGCACAGCAGAAGCGUUCACGUCGCAGCCCCUGCCAGAUUCUGGUGAACCUGCGAAUUCUGCUGUAUAUCUC, the self-cleavage stood at 0.19.
UAACAGGGGGGCACAGCAGAACCGUUCGCGUCGUAGCCCCUGUCAGAUUCUGGUGAAUCUGCGAGUUCUGCUGUAUAUCUC: the self-cleavage came to 0.05.
In the case of UAACAGGGGGGCACAGCAGAAGCGUUCACGUCGCAGCCCCUGUCAGAUUCCGGUGAAUCAGCGAAUUCUGCUGUAUAUCCC, the self-cleavage came out at 0.18.
For the variant UAACAGGGGGGCACAGCAGAAGCGUUCACGUCGCAGCCCCUGUCAGAAUCUGGCGAAUCUGCGAAUUCUGCUGUAUACCUC, the self-cleavage came to 0.07.
Take UAACAGGGGGGCACAGCAGAAGCGCUCACGUCGCAGCCCCUGUCAGAUUCUAGUGAAUCUGCGAAUUCUGCUGUAUAUCUC: the self-cleavage is 0.38.
